Experimental data: the BET-seq Pho4 binding data (Le et al. 2018)
The other results are listed elsewhere or left out. The energies were worked out here from pooled read counts, against the library average; single values are noisy.

What follows are sequences tested against T1, Pho4 (S. cerevisiae) (UniProt P07270) (assay: relative binding free energy (BET-seq); higher = weaker binding). Conditions: reference: library average.
T1 sequence: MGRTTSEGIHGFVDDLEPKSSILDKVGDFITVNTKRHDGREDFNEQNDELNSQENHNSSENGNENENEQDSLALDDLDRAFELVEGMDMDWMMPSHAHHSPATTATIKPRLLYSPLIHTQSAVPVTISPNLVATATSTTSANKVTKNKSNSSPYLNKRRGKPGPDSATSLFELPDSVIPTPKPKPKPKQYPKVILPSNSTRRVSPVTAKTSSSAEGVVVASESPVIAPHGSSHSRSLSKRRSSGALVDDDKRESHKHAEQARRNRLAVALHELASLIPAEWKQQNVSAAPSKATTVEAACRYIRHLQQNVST

| Sequence | relative binding free energy [kcal/mol] |
| --- | --- |
| AGTGACACGTGACGTT | 0.05 |
| GTTGACACGTGAGGGA | 0.25 |
| GTGGACACGTGGCTAA | 0.06 |
| GTGGACACGTGAGTGA | 0.18 |
| GCTATCACGTGCGGGT | 0.15 |
| TGCTTCACGTGGTCTG | 0.11 |
| AGGGGCACGTGGTGTT | -0.18 |
| AGGCTCACGTGTTGTA | 0.27 |
| ATGAGCACGTGGGGAT | -0.18 |
| TGTTGCACGTGATGCG | 0.01 |
| TACGACACGTGAGTTG | 0.29 |
| GCCGTCACGTGTGTGA | 0.24 |
| GGATGCACGTGATTGA | 0.23 |
| ATGTACACGTGGAAGG | 0.08 |
| CTGTGCACGTGGTTGC | -0.02 |
| TAGCGCACGTGTATTT | -0.07 |
| AGGCTCACGTGGTAGT | 0.25 |
| TAGCGCACGTGGGAGA | -0.12 |
| CTTGGCACGTGATATG | 0.01 |
| CATGACACGTGCGGGT | 0.05 |
| ATTCGCACGTGTGCGG | 0.12 |
| TGTTGCACGTGCTAAT | 0 |
| TGGCTCACGTGGGGTC | 0.05 |
| ATGAACACGTGCAGGG | 0.08 |
| CCTGGCACGTGGGGCG | -0.23 |

| Sequence | relative binding free energy [kcal/mol] |
| --- | --- |
| TAAATCACGTGGTTTG | 0.04 |
| GTGATCACGTGTTTGC | 0.15 |
| GAGGACACGTGGGAGT | -0.08 |
| AGGGACACGTGAGGCG | 0.1 |
| TTAGGCACGTGTTGGG | -0.06 |
| TTAAACACGTGTCGGG | 0.02 |
| AGTAGCACGTGTTTGC | -0.15 |
| GGGGACACGTGAGGTA | 0.16 |
| GTACTCACGTGGGGGT | 0.06 |
| TTGGACACGTGGCTAT | 0.03 |
| GCATGCACGTGGATGG | -0.08 |
| TGAAACACGTGGACGT | 0.19 |
| AAATTCACGTGTGGTC | 0.19 |
| TTTTTCACGTGTAATA | 0.26 |
| GTAGGCACGTGCATGG | -0.04 |
| TCGTACACGTGGAGGG | -0.07 |
| CTTGCCACGTGTATGG | -0.02 |
| ATAGTCACGTGCCAGG | 0.15 |
| TCTCGCACGTGAGGTT | 0.1 |
| AATTTCACGTGGGATG | 0.32 |
| TGCGACACGTGTATAT | 0.22 |
| GGTGGCACGTGTGAGT | 0.07 |
| GTGGACACGTGTACAG | 0.15 |
| TTTTGCACGTGGATAG | 0.02 |
| GTTAGCACGTGAACTG | 0.47 |

| Sequence | relative binding free energy [kcal/mol] |
| --- | --- |
| GATGCCACGTGTTGGA | 0.05 |
| GGGACCACGTGTTGTG | 0.02 |
| TTTCGCACGTGGTGTA | -0.16 |
| TTTTTCACGTGAATGC | 0.51 |
| TGTAACACGTGTTAAG | -0.17 |
| TAAGTCACGTGGCGGG | -0.01 |
| GAGATCACGTGAGGCG | 0.39 |
| TGCGTCACGTGGTTGG | 0.13 |
| TCGTTCACGTGTGTAG | 0.2 |
| ATGAACACGTGCTGGT | -0.1 |
| TAAGGCACGTGTTGTT | -0.11 |
| GATGTCACGTGGTTGT | 0.15 |
| TGGAACACGTGGGTTG | -0.11 |
| TCGAGCACGTGGGGGT | -0.29 |
| AGGGTCACGTGGAGGT | 0.12 |
| TGTACCACGTGTGGTC | -0.03 |
| TTAGACACGTGTTCGG | 0.01 |
| AAATGCACGTGGTGGC | -0.03 |
| AGTCCCACGTGGTTGT | -0.07 |
| GTATACACGTGTCTTT | 0.06 |
| GGGGGCACGTGTGTAG | -0.04 |
| TTTGCCACGTGATTGG | 0.01 |
| GCTTGCACGTGTTTGG | 0.09 |
| TGGATCACGTGTCTGG | 0.12 |
| TAGTGCACGTGGTCTT | -0.27 |

| Sequence | relative binding free energy [kcal/mol] |
| --- | --- |
| TGCTTCACGTGTAAAT | 0.33 |
| TGGCTCACGTGTGAAG | 0.35 |
| TAGGTCACGTGATTCT | 0.26 |
| AGCAGCACGTGTGTTG | -0.07 |
| TAATGCACGTGTGAAA | 0.16 |
| GTGGACACGTGGGTTA | -0.01 |
| TGTAGCACGTGGTGAC | -0.19 |
| AGAAGCACGTGTGCGG | -0.13 |
| GCTGACACGTGGGTTG | 0.03 |
| TTCATCACGTGTTAAA | 0.31 |
| GTTTTCACGTGTATGG | 0.24 |
| GCCTTCACGTGGCGGT | 0.43 |
| GGGAGCACGTGCATGT | -0.11 |
| AATTCCACGTGGTTTG | 0.1 |
| TTGAACACGTGTGTTG | 0.05 |
| GTGTGCACGTGTTAAC | 0.02 |
| TGGCACACGTGTATTT | 0.03 |
| GACGTCACGTGGTGGA | 0.12 |
| TGAATCACGTGACGGG | 0.27 |
| GTGTGCACGTGCGTAG | -0.1 |
| AGGGGCACGTGTTAAC | -0.04 |
| TGTTCCACGTGCAGGG | 0.07 |
| AGGATCACGTGCTGGT | -0.03 |
| TGTATCACGTGAGGGG | 0.29 |
| GTGGACACGTGCAGGA | 0.1 |

| Sequence | relative binding free energy [kcal/mol] |
| --- | --- |
| AACAGCACGTGTTGTG | -0.09 |
| TATTCCACGTGAGGTG | 0.23 |
| GTATGCACGTGGGCTT | -0.15 |
| GGGTGCACGTGTAGAC | 0.02 |
| TTATTCACGTGGGTGG | 0.09 |
| TTATGCACGTGGAGTC | -0.01 |
| TAAGTCACGTGGAGCT | 0.19 |
| CTCTTCACGTGGGTTG | 0.16 |
| TTAATCACGTGTTCGA | 0.18 |
| TTGTACACGTGGCGGT | 0.06 |
| TGCCACACGTGGTGGT | -0.02 |
| GATTACACGTGGAGTA | 0.25 |
| TTAGTCACGTGTACGT | 0.12 |
| TTATGCACGTGGGCAT | -0.15 |
| GGGATCACGTGTAAGT | 0.19 |
| TGGGGCACGTGGGTCG | -0.1 |
| CTGGTCACGTGTTGAT | 0.15 |
| TACTGCACGTGTGTGT | -0.09 |
| CGAGGCACGTGAGGGA | 0.17 |
| AAGGTCACGTGTAATG | 0.18 |
| TATGTCACGTGGAAGC | 0.24 |
| ATAAGCACGTGGCGTT | -0.15 |
| CTTGACACGTGTGGCG | 0.04 |
| AACAGCACGTGGGGGG | -0.2 |
| GACGTCACGTGGGGGC | 0.02 |

| Sequence | relative binding free energy [kcal/mol] |
| --- | --- |
| TGAGGCACGTGTCATG | -0.16 |
| GCGATCACGTGGGTGA | 0.02 |
| TATATCACGTGGGATA | 0.07 |
| ATGAGCACGTGGCTGT | -0.14 |
| GATGGCACGTGTGGAG | -0.09 |
| AAAATCACGTGGGAGT | 0.2 |
| TTAGACACGTGTAGGG | 0.14 |
| CATATCACGTGGTATT | 0.02 |
| AATTACACGTGGGCGG | -0.11 |
| ATGATCACGTGGGTCT | -0.09 |
| GCTTTCACGTGTTATA | 0.39 |
| GTCGTCACGTGAGATG | 0.28 |
| TTGATCACGTGTAGCT | 0.09 |
| TGTGACACGTGTATGT | -0.02 |
| TGCGTCACGTGGCCGT | -0.04 |
| CTGTTCACGTGGGGCG | 0.09 |
| ACTGTCACGTGAGGGG | 0.29 |
| AGGGGCACGTGCATTG | -0.18 |
| GTCATCACGTGATGGG | 0.27 |
| AGGAACACGTGGTATT | -0.01 |
| ACATTCACGTGTGTTT | 0.22 |
